Some of the results follow.
Columns and labels:
Assay in all cases: glycan array binding signal (z-score within array); higher = stronger binding
Details in all cases: glycan notation: IUPAC condensed, linker removed
Fuc(a1-2)Gal = biological target: Fuc(a1-2)Gal
Method in brief: (§1)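 Glycan array data came from 3228 arrays in the Consortium for Functional Glycomics database, and only arrays with an available protein sequence were kept. Glycan names were put into IUPAC-condensed notation, and columns mapping to the same glycan were averaged. The binding signal is a within-array Z-score, averaged across arrays of one protein sequence run at different concentrations or buffers and across linkers. A negative Z-score can be read as non-binding.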

Fuc(a1-2)Gal(b1-3)GalNAc = biological target: Fuc(a1-2)Gal(b1-3)GalNAc
Method in brief: as §1

[1] = biological target: Fuc(a1-2)Gal(b1-3)GalNAc(a1-3)[Fuc(a1-2)]Gal(b1-4)Glc
Method in brief: as §1

[2] = biological target: Fuc(a1-2)Gal(b1-3)GalNAc(a1-3)[Fuc(a1-2)]Gal(b1-4)GlcNAc
Method in brief: as §1

[3] = biological target: Fuc(a1-2)Gal(b1-3)GalNAc(b1-3)Gal
Method in brief: as §1

[4] = biological target: Fuc(a1-2)Gal(b1-3)GalNAc(b1-3)Gal(a1-4)Gal(b1-4)Glc
Method in brief: as §1

[5] = biological target: Fuc(a1-2)Gal(b1-3)GalNAc(b1-4)[Neu5Ac(a2-3)]Gal(b1-4)Glc
Method in brief: as §1

Fuc(a1-2)Gal(b1-3)GlcNAc = biological target: Fuc(a1-2)Gal(b1-3)GlcNAc
Method in brief: as §1

[6] = biological target: Fuc(a1-2)Gal(b1-3)GlcNAc(b1-2)Man(a1-3)[Fuc(a1-2)Gal(b1-3)GlcNAc(b1-2)Man(a1-6)]Man(b1-4)GlcNAc(b1-4)GlcNAc
Method in brief: as §1

[7] = biological target: Fuc(a1-2)Gal(b1-3)GlcNAc(b1-2)Man(a1-3)[Fuc(a1-2)Gal(b1-3)GlcNAc(b1-2)Man(a1-6)]Man(b1-4)GlcNAc(b1-4)[Fuc(a1-6)]GlcNAc
Method in brief: as §1

[8] = biological target: Fuc(a1-2)Gal(b1-3)GlcNAc(b1-3)Gal(b1-4)Glc
Method in brief: as §1

[9] = biological target: Fuc(a1-2)Gal(b1-3)GlcNAc(b1-3)GalNAc
Method in brief: as §1

[10] = biological target: Fuc(a1-2)Gal(b1-3)GlcNAc(b1-3)[Fuc(a1-2)Gal(b1-3)GlcNAc(b1-6)]GalNAc
Method in brief: as §1

[11] = biological target: Fuc(a1-2)Gal(b1-3)GlcNAc(b1-3)[Gal(b1-4)GlcNAc(b1-6)]Gal(b1-4)Glc
Method in brief: as §1

[12] = biological target: Fuc(a1-2)Gal(b1-3)GlcNAc(b1-3)[Neu5Ac(a2-6)Gal(b1-4)GlcNAc(b1-6)]Gal(b1-4)Glc
Method in brief: as §1

[13] = biological target: Fuc(a1-2)Gal(b1-3)GlcNAc6S
Method in brief: as §1

[14] = biological target: Fuc(a1-2)Gal(b1-3)[Fuc(a1-4)]GlcNAc
Method in brief: as §1

[15] = biological target: Fuc(a1-2)Gal(b1-3)[Fuc(a1-4)]GlcNAc(b1-2)Man(a1-3)[Fuc(a1-2)Gal(b1-3)[Fuc(a1-4)]GlcNAc(b1-2)Man(a1-3)]Man(b1-4)GlcNAc(b1-4)GlcNAc
Method in brief: as §1

[16] = biological target: Fuc(a1-2)Gal(b1-3)[Fuc(a1-4)]GlcNAc(b1-2)Man(a1-3)[Fuc(a1-2)Gal(b1-3)[Fuc(a1-4)]GlcNAc(b1-2)Man(a1-6)]Man(b1-4)GlcNAc(b1-4)[Fuc(a1-6)]GlcNAc(b1-4)[Fuc(a1-6)]GlcNAc
Method in brief: as §1

[17] = biological target: Fuc(a1-2)Gal(b1-3)[Fuc(a1-4)]GlcNAc(b1-3)[Fuc(a1-3)[Gal(b1-4)]GlcNAc(b1-6)]Gal(b1-4)Glc
Method in brief: as §1

[18] = biological target: Fuc(a1-2)Gal(b1-3)[Fuc(a1-4)]GlcNAc(b1-3)[Gal(b1-4)GlcNAc(b1-6)]Gal(b1-4)Glc
Method in brief: as §1

Fuc(a1-2)Gal(b1-4)Glc = biological target: Fuc(a1-2)Gal(b1-4)Glc
Method in brief: as §1

Fuc(a1-2)Gal(b1-4)Glc6S = biological target: Fuc(a1-2)Gal(b1-4)Glc6S
Method in brief: as §1

Fuc(a1-2)Gal(b1-4)GlcNAc = biological target: Fuc(a1-2)Gal(b1-4)GlcNAc
Method in brief: as §1

[19] = biological target: Fuc(a1-2)Gal(b1-4)GlcNAc(b1-2)Man
Method in brief: as §1

[20] = biological target: Fuc(a1-2)Gal(b1-4)GlcNAc(b1-2)Man(a1-3)[Fuc(a1-2)Gal(b1-4)GlcNAc(b1-2)Man(a1-6)]Man(b1-4)GlcNAc(b1-4)GlcNAc
Method in brief: as §1

[21] = biological target: Fuc(a1-2)Gal(b1-4)GlcNAc(b1-2)Man(a1-3)[Fuc(a1-2)Gal(b1-4)GlcNAc(b1-2)Man(a1-6)]Man(b1-4)GlcNAc(b1-4)[Fuc(a1-6)]GlcNAc
Method in brief: as §1

[22] = biological target: Fuc(a1-2)Gal(b1-4)GlcNAc(b1-2)[Fuc(a1-2)Gal(b1-4)GlcNAc(b1-4)]Man(a1-3)[Fuc(a1-2)Gal(b1-4)GlcNAc(b1-2)Man(a1-6)]Man(b1-4)GlcNAc(b1-4)GlcNAc
Method in brief: as §1

[23] = biological target: Fuc(a1-2)Gal(b1-4)GlcNAc(b1-3)Gal(b1-4)GlcNAc
Method in brief: as §1

[24] = biological target: Fuc(a1-2)Gal(b1-4)GlcNAc(b1-3)Gal(b1-4)GlcNAc(b1-2)Man(a1-3)[Fuc(a1-2)Gal(b1-4)GlcNAc(b1-3)Gal(b1-4)GlcNAc(b1-2)Man(a1-6)]Man(b1-4)GlcNAc(b1-4)GlcNAc
Method in brief: as §1

[25] = biological target: Fuc(a1-2)Gal(b1-4)GlcNAc(b1-3)Gal(b1-4)GlcNAc(b1-3)Gal(b1-4)GlcNAc
Method in brief: as §1

[26] = biological target: Fuc(a1-2)Gal(b1-4)GlcNAc(b1-3)GalNAc
Method in brief: as §1

[27] = biological target: Fuc(a1-2)Gal(b1-4)GlcNAc(b1-3)[Fuc(a1-2)Gal(b1-4)GlcNAc(b1-6)]GalNAc
Method in brief: as §1

[28] = biological target: Fuc(a1-2)Gal(b1-4)GlcNAc(b1-3)[Fuc(a1-3)[Gal(b1-4)]GlcNAc(b1-6)]Gal(b1-4)Glc
Method in brief: as §1

[29] = biological target: Fuc(a1-2)Gal(b1-4)GlcNAc(b1-6)GalNAc
Method in brief: as §1

[30] = biological target: Fuc(a1-2)Gal(b1-4)GlcNAc6S
Method in brief: as §1

[31] = biological target: Fuc(a1-2)Gal(b1-4)[Fuc(a1-3)]GlcNAc
Method in brief: as §1

[32] = biological target: Fuc(a1-2)Gal(b1-4)[Fuc(a1-3)]GlcNAc(b1-2)Man(a1-3)[Fuc(a1-2)Gal(b1-4)[Fuc(a1-3)]GlcNAc(b1-2)Man(a1-6)]Man(b1-4)GlcNAc(b1-4)[Fuc(a1-6)]GlcNAc
Method in brief: as §1

[33] = biological target: Fuc(a1-2)Gal(b1-4)[Fuc(a1-3)]GlcNAc(b1-2)[Fuc(a1-2)Gal(b1-4)[Fuc(a1-3)]GlcNAc(b1-4)]Man(a1-3)[Fuc(a1-2)Gal(b1-4)[Fuc(a1-3)]GlcNAc(b1-2)Man(a1-6)]Man(b1-4)GlcNAc(b1-4)GlcNAc
Method in brief: as §1

[34] = biological target: Fuc(a1-2)Gal(b1-4)[Fuc(a1-3)]GlcNAc(b1-3)Gal(b1-4)[Fuc(a1-3)]GlcNAc
Method in brief: as §1

[35] = biological target: Fuc(a1-2)Gal(b1-4)[Fuc(a1-3)]GlcNAc(b1-3)Gal(b1-4)[Fuc(a1-3)]GlcNAc(b1-3)Gal(b1-4)[Fuc(a1-3)]GlcNAc
Method in brief: as §1

[36] = biological target: Fuc(a1-2)Gal(b1-4)[Fuc(a1-3)]GlcNAc(b1-3)GalNAc
Method in brief: as §1

[37] = biological target: Fuc(a1-2)Gal(b1-4)[Fuc(a1-3)]GlcNAc(b1-3)[Neu5Ac(a2-6)Gal(b1-4)GlcNAc(b1-6)]Gal(b1-4)Glc
Method in brief: as §1

[38] = biological target: Fuc(a1-2)Gal3S(b1-4)GlcNAc
Method in brief: as §1

[39] = biological target: Fuc(a1-2)Gal6S(b1-3)GlcNAc
Method in brief: as §1

B1: SP16665A-bot-344-23-344 (Bacteroides ovatus) (protein)
chain: SDNEFPDFDYQTVYFANQYGLRTIELGESEFVDNTLDNQHKMVIKAAWGGGYTNRNNVVINFKVDESLCDNLYFKDTDQPLVPMPASYYTLASDRIAIPKGQIMAGVEVQLTDDFFADEKSISENYVIPLLMTNVQGADSILQGKPVVENPVLTNAGDWSILPQNFVLYAVKYVNPWHGEYLRRGIDHATVAGTSKDIIRHEQFVENDEVVNISTKSMKDNLLTLKTKDESGKDISYTVRLSFAEDGSCTVHSGSQNVVVSGSGKFVSKGEKNSLGGKDRNAIYLDYTVNLTDNNIQLATKDTLVLRTRNVYGGKSLEVVRK
glycan array binding signal (z-score) (Fuc(a1-2)Gal): -0.352
glycan array binding signal (z-score) (Fuc(a1-2)Gal(b1-3)GalNAc): 0.245
glycan array binding signal (z-score) [1]: -0.461
glycan array binding signal (z-score) [2]: -0.235
glycan array binding signal (z-score) [3]: -0.326
glycan array binding signal (z-score) [4]: -0.053
glycan array binding signal (z-score) [5]: -0.292
glycan array binding signal (z-score) (Fuc(a1-2)Gal(b1-3)GlcNAc): -0.201
glycan array binding signal (z-score) [6]: 0.068
glycan array binding signal (z-score) [7]: 0.285
glycan array binding signal (z-score) [8]: -0.208
glycan array binding signal (z-score) [9]: -0.509
glycan array binding signal (z-score) [10]: 0.262
glycan array binding signal (z-score) [11]: -0.461
glycan array binding signal (z-score) [12]: 0.282
glycan array binding signal (z-score) [13]: 0.314
glycan array binding signal (z-score) [14]: -0.547
glycan array binding signal (z-score) [15]: 0.066
glycan array binding signal (z-score) [16]: -0.207
glycan array binding signal (z-score) [17]: 0.069
glycan array binding signal (z-score) [18]: -0.441
glycan array binding signal (z-score) (Fuc(a1-2)Gal(b1-4)Glc): -0.352
glycan array binding signal (z-score) (Fuc(a1-2)Gal(b1-4)Glc6S): -0.314
glycan array binding signal (z-score) (Fuc(a1-2)Gal(b1-4)GlcNAc): -0.054
glycan array binding signal (z-score) [19]: 0.22
glycan array binding signal (z-score) [20]: 0.001
glycan array binding signal (z-score) [21]: -0.468
glycan array binding signal (z-score) [22]: -0.643
glycan array binding signal (z-score) [23]: -0.213
glycan array binding signal (z-score) [24]: 0.005
glycan array binding signal (z-score) [25]: -0.419
glycan array binding signal (z-score) [26]: 0.02
glycan array binding signal (z-score) [27]: 0.349
glycan array binding signal (z-score) [28]: -0.168
glycan array binding signal (z-score) [29]: -0.072
glycan array binding signal (z-score) [30]: -0.416
glycan array binding signal (z-score) [31]: -0.007
glycan array binding signal (z-score) [32]: 0.494
glycan array binding signal (z-score) [33]: -0.05
glycan array binding signal (z-score) [34]: 0.357
glycan array binding signal (z-score) [35]: -0.231
glycan array binding signal (z-score) [36]: 0.687
glycan array binding signal (z-score) [37]: 0.039
glycan array binding signal (z-score) [38]: 0.29
glycan array binding signal (z-score) [39]: -0.017

Reference: the supplement of paper PMC8728848
